Experimental data from paper PMC4336329 (PLoS ONE, 2015).
Among all 310,000 compounds or so, about 2,200 (0.71%) showed an effect of 50% or more. The effect is printed as a negative number. The list shows a part of the results.

Target: human ether-à-go-go-related gene (hERG) potassium channel (human, UniProt Q12809)
Assay: primary screen, population patch clamp on CHO cells stably expressing hERG

Chain of human ether-à-go-go-related gene (hERG) potassium channel (Q12809 whole entry, looked up): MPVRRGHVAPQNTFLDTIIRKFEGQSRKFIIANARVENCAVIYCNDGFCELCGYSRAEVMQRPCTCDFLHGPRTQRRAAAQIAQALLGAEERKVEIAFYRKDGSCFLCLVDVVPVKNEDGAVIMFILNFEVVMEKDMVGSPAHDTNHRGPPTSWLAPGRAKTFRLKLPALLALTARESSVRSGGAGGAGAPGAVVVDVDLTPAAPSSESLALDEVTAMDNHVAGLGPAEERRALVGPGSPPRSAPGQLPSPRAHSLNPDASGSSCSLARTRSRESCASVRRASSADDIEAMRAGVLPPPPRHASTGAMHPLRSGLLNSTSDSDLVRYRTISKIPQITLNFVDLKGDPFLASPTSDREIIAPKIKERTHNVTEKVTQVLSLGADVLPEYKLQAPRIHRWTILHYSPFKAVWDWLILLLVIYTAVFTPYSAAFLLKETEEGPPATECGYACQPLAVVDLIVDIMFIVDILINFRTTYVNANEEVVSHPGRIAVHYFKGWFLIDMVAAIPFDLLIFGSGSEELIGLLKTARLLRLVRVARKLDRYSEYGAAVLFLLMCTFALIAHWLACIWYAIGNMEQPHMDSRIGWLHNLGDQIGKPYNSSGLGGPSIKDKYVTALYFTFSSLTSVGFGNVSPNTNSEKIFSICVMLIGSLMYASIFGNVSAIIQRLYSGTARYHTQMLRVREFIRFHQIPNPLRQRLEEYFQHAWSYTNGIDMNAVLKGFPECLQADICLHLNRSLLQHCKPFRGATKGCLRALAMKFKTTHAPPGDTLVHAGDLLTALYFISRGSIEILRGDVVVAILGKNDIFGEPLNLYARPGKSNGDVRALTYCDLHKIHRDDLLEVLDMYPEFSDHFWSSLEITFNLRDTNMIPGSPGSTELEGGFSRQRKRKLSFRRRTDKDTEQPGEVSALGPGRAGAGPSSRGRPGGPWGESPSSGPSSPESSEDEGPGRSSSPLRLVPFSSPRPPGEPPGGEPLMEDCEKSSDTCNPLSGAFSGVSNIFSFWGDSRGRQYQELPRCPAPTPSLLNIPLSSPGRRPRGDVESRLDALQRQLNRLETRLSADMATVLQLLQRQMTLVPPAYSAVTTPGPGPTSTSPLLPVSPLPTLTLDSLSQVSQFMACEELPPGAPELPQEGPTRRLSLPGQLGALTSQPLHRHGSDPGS

| Compound | hERG current change (%, negative = inhibition) at 1uM |
| --- | --- |
| CC(=O)Nc1ccc(C(=O)OCc2ccc(Br)cc2)cc1 | 5.12% |
| CN(Cc1ccc(OCC(O)CN(C)Cc2ccccc2)cc1)Cc1nccn1C (centres unmarked) | 1.21% |
| Fc1ccc(-c2nnc3sc(C4COc5ccccc5O4)nn23)cc1 (centres unmarked) | -9.28% |
| Cc1[nH]n(C(N)=S)c(=O)c1N=Nc1ccccc1C(F)(F)F | 13.2% |
| O=c1cc(Nc2ccc3c(c2)OCO3)[nH]c(=O)n1-c1ccc(Br)cc1 | 12.4% |
| Cc1cc(N(C)Cc2ccccc2)nc(-c2ccccc2)n1 | 1.51% |
| Cc1ccc(O)c(-c2cc(-c3cccc(F)c3)n[nH]2)c1 | 19.5% |
| Cc1nnn(-c2nonc2N)c1C(=O)NNC(=O)c1ccc(Cl)c(Cl)c1 | 11.4% |
| CCOC(=O)c1ccc(NC(=O)N2CCN(S(C)(=O)=O)CC2)cc1 | 14.4% |
| Cc1c(NC(NC(=O)CF)C(Cl)(Cl)Cl)c(=O)n(-c2ccccc2)n1C (centres unmarked) | 11.8% |
| COc1ccc(CNC(=O)CCOc2ccc(C(C)(C)C)cc2)cc1 | 9.68% |
| O=C(COC(=O)c1ccco1)NCc1cccs1 | 21.5% |
| Cc1cc(C)nc(SCC(=O)Nc2ncc(C(F)(F)F)cc2Cl)n1 | 4.1% |
| CN(C(=O)c1ccc(OC2CCN(CCc3ccccc3)CC2)cc1)C1CCCCC1 | -27.7% |
| CCN(CC)S(=O)(=O)c1ccc(C(=O)N2CCN(c3ncccn3)CC2)cc1 | 9.24% |
| CC1CCCC(C)N1C(=O)c1cc(-c2ccc3c(c2)OCO3)on1 (centres unmarked) | 9.61% |
| CC(=O)Nc1ccc(S(=O)(=O)Nc2cccc(N(C)S(C)(=O)=O)c2)cc1 | 14.7% |
| Cc1cc(C)n2cc(CSc3nc4cc(Cl)ccc4o3)nc2n1 | -36.5% |
| CC(=O)c1ccc(-c2ccc(C(=O)N3CCN(c4ccc(F)cc4)CC3)o2)cc1 | 4.06% |
| CCCCN1C(=O)C(=O)NC[C@@H]1CCCCN | 11.8% |
| CN(C)C(=O)COc1ncnc2sc(-c3ccccc3)cc12 | 10.6% |
| COC(=O)C1=C(c2c(C)noc2C)C[C@@H]2CC[C@H]1N2C(=O)NCc1ccc(F)cc1 | 10.6% |
| O=[N+]([O-])c1cc(S(=O)(=O)Nc2ccc(Cl)cc2)ccc1N/N=C/c1ccncc1 | 5.08% |

| Compound | hERG current change (%, negative = inhibition) at 1uM |
| --- | --- |
| C#CCOc1c(Cl)cc(/C=N/NC(N)=S)cc1OCC | 1.35% |
| O=C(CSc1ccc2nnc(-c3ccncc3)n2n1)Nc1ccc2c(c1)OCO2 | 13.8% |
| CCOCCCNC(=O)C1CCC(CNS(=O)(=O)c2ccc(F)cc2)CC1 (centres unmarked) | 2.55% |
| Nc1nonc1C(=O)OCC(=O)N1CCOCC1 | 7.64% |
| Cc1cccc(C(=O)OCc2cc3ccccc3[nH]c2=O)c1 | 16.7% |
| Cc1cc(C)c(/C=C(\C#N)S(=O)(=O)c2ccccc2)[nH]1 | 14.3% |
| CC(C)(C)C(=O)Nc1ccc(S(=O)(=O)NC2=NCCCCC2)cc1 | 13.8% |
| CCCCCC1CCC(C(=O)N2CCOCC2)CC1 (centres unmarked) | 14.7% |
| Cc1ccc2nc(-c3cccc(N)c3)[nH]c2c1 | 13% |
| Cc1ccnc(NS(=O)(=O)c2ccc(N=CC3=C(O)CC(C)(C)CC3=O)cc2)n1 | -4.04% |
| C1CC2NCCC3NCCC(N1)N32 (centres unmarked) | 5.12% |
| CC(C)NC(=O)NC(=O)COC(=O)Cc1ccsc1 | 5.11% |
| COc1ccc(NC(=O)CSCC(=O)N(C)CCOc2ccc(Cl)cc2)cc1 | -9.12% |
| CCS(=O)(=O)c1ccc2c(c1)N(S(=O)(=O)c1ccc(Cl)cc1)CC(C(=O)O)O2 (centres unmarked) | 1.76% |
| COc1ccc(NC(=O)CSc2nnc(C3CCCCC3)n2N)c(OC)c1 | 13.2% |
| O=C(Nc1cccc(S(=O)(=O)N2CCCCC2)c1)C1CCN(C(=O)c2ccc(Cl)cc2)CC1 | 10.5% |
| CCNc1nc(NCC)n2c(SCC(=O)c3ccc(C(C)C)cc3)nnc2n1 | 12.2% |
| CCC(=O)Nc1nonc1-c1nc2ccccc2n1CCC(C)C | 5.5% |
| O=C(CCc1nnc2ccc(NCc3ccco3)nn12)N1CCN(c2ccc(F)cc2)CC1 | 7.48% |
| O=c1c2ccccc2nc(-c2ccccc2)n1-c1nccs1 | 11.6% |
| Br.CCCCCCCCCCn1c2c(c(=N)c3c1CCC3)CCC2 | -71.7% |
| c1ccc(CN2CCN(c3nc4ccccc4c4ccccc34)CC2)cc1 | 0.223% |
| Cc1ccc(NCC(=O)Nc2c(C)n(C)n(-c3ccccc3)c2=O)cc1S(=O)(=O)N(C)C | 7.49% |

| Compound | hERG current change (%, negative = inhibition) at 1uM |
| --- | --- |
| Cc1cccc(N(C)S(=O)(=O)c2ccc3c(c2)NC(=O)CC(=O)N3)c1 | 19.5% |
| Cc1c(NC(=O)COC(=O)C(c2ccc(Cl)cc2)C(C)C)c(=O)n(-c2ccccc2)n1C (centres unmarked) | 14.1% |
| CCOc1cc(C)nc(NCCc2ccc(OC)c(OC)c2)n1 | 8.65% |
| CN(C)C(CNC(=O)c1cccc(S(=O)(=O)Nc2ccccc2Cl)c1)c1ccco1 (centres unmarked) | -2.84% |
| O=S(=O)(NCC(c1ccco1)N1CCc2ccccc21)c1ccccc1 (centres unmarked) | 2.67% |
| COc1cccc(NC(=O)NC2CCN(Cc3nnnn3Cc3ccc(F)cc3)CC2)c1 | -20% |
| Cc1ccc(C(=O)NC(=S)N2CCN(C)CC2)cc1 | 2.6% |
| O=C(N/N=C/c1ccc(OC(=O)c2cccs2)cc1)c1cccc(F)c1 | 9.18% |
| COC(=O)c1[nH]c2ccc(C)cc2c1NC(=O)CN1CCN(c2ccc(F)cc2)CC1 | 7% |
| N/C(=N\c1nc2ccccc2o1)NC(=O)c1ccc(Cl)cc1 | 18% |
| CCn1c(SCc2ccccc2)nnc1C1CCN(S(=O)(=O)c2ccc(OC)cc2)CC1 | 0.325% |
| COc1ccc(F)cc1C(=O)C1CCCN(C(=O)c2ccc(C(C)=O)s2)C1 (centres unmarked) | 10.1% |
| COc1c(Cl)cnn(-c2ccc(Cl)c(Cl)c2)c1=O | 12.8% |
| CSc1nc2c(c(=O)n1-c1ccc(F)cc1)SCC2 | 11.4% |
| O=C(O)C1CC=C(Cl)CC1C(=O)NC1CCCCC1 (centres unmarked) | 14.5% |
| CNC(=O)[C@@]1(Cc2ccccc2)C=C[C@@H](C)N1C(C)=O | 6.62% |
| Cc1cc(C)n(-c2nc(NCC(C)O)c3c4c(sc3n2)CCCC4)n1 (centres unmarked) | -0.392% |
| O=C(Nc1ccc(S(=O)(=O)Nc2cnc3ccccc3n2)cc1)c1cccc(OC(F)F)c1 | 0.539% |
| CCCc1cc(C(=O)OC)c(NC(=O)CCC(=O)O)s1 | 10.3% |
| CNC(=S)N(C)/N=C1/C(=O)N(Cc2c(Cl)cccc2Cl)c2ccccc21 | 10.9% |
| CCOc1ccc(C(=O)NCC(=O)NCC2CCCCC2)cc1OCC | 13.9% |
| COc1ccc(Cn2cnc3sccc3c2=O)cc1 | 0.544% |
| CCCOc1ccc(/C=N/NC(=O)c2nnn(-c3nonc3N)c2-c2cccs2)cc1OC | -2.55% |

| Compound | hERG current change (%, negative = inhibition) at 1uM |
| --- | --- |
| COc1ccc(C(=O)COc2ccccc2C(N)=O)cc1 | 8.47% |
| CCN1CCN(c2sc(S(C)(=O)=O)nc2S(=O)(=O)c2ccc(Cl)cc2)CC1 | -19.1% |
| COc1ccc(C(=O)N2CCN(c3ncccn3)CC2)cc1S(=O)(=O)N1CCOCC1 | 11% |
| CCc1ccc(CN(C(=O)c2cc3ccccc3oc2=O)C2CCS(=O)(=O)C2)cc1 (centres unmarked) | 3.71% |
| Oc1c(Cl)cc(Cl)cc1C=Nc1ccc(N2CCOCC2)cc1 | 9.19% |
| COc1cc(CN2CCN(C(=O)Cc3ccccc3)CC2)cc(OC)c1OC.O=C(O)C(=O)O | 5.81% |
| CC(OC(=O)c1cccc(S(=O)(=O)Nc2ccccc2F)c1)C(=O)NCc1ccc2c(c1)OCO2 (centres unmarked) | 6.09% |
| CNC(=O)COC(=O)CNC(=O)c1cc(Cl)cc([N+](=O)[O-])c1 | 16.6% |
| O=C(NC1CCCC1)C(NS(=O)(=O)c1ccc(Br)s1)c1ccccc1 (centres unmarked) | 13.1% |
| Cc1cccc2cc(CN(CCc3ccccc3)C(=O)N3CCOCC3)c3nnnn3c12 | 12.5% |
| CC(=O)Nc1ccc2nc(CN3CCC(CO)(CCc4ccccc4)CC3)ccc2c1 | -17.5% |
| CCOCCOC(=O)C1=C(C)N(C)C(=O)NC1c1cc(Cl)c(O)c(OCC)c1 (centres unmarked) | 2.72% |
| CC(C)c1ccc(/C=C/C(=O)NCc2ccc(S(N)(=O)=O)cc2)cc1 | 13% |
| Cn1c(CC(=O)Nc2ccccc2F)nnc1SCC(=O)Nc1ccccc1Br | 9.15% |
| O=C(CCC(=O)N1CCCC1)Nc1ccc(Cl)c(Cl)c1 | 9.55% |
| Cc1nnc(NC(=O)CSc2n[nH]c(-c3ccccc3C)n2)s1 | 1.88% |
| CN(C)c1ccc(C(=S)Nc2ccccc2)cc1 | 9.74% |
| O=C(Nc1c2c(nn1-c1ccc(F)cc1)CS(=O)(=O)C2)c1ccc(Br)o1 | 3.78% |
| Cc1ccc(-c2ccnc3cc(C)nn23)cc1 | 8.81% |
| CN(CCOc1ccccc1)C(=O)c1cc(S(=O)(=O)N2CCOCC2)ccc1Cl | -10.5% |
